Laboratory results published in the supplement of paper PMC10126150.
Sequences with one replicate were seen in a single cluster, so their values are uncertain.

System: ATP
Assay: switch fluorescence ratio, 500 uM ATP over buffer (Cy3 cluster intensity, sum of 5 cycles each) (fold (ratio)); higher = stronger signal-on switching upon ATP binding; sequences stand for … in TCGTCGGCAGCGTCAGATGTGTATAAGAGACAGTTTTTTTTTTTTTTTTTTTTTTTTT…TC
Conditions: aptamer strand: ATP DNA aptamer (quencher-CACCTGGGGGAGTATTGCGGAGGAAGG + anchor), 100 nM annealed; ATP concentration: 500 uM; one replicate
Outline: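 Imaging in selection buffer was followed by imaging after 15 min with 500 uM ATP at 22 °C, for Cy3-labelled switching-strand clusters annealed to 100 nM quencher-labelled ATP aptamer on a modified Illumina MiSeq flow-cell. Five of these buffer/ATP cycles ran, separated by NaOH stripping and re-annealing. The fluorescence ratio per cluster is summed target-cycle over summed buffer-cycle Cy3 intensity, averaged per switch-domain sequence; clusters outside 100-1000 RFU were removed.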
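Note: ATP exposure 15 min at 22 °C before imaging.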

Row | Sequence | switch fluorescence ratio
1 | CCGCTGGACC | 3.12
2 | TAATGCGTGA | 0.988
3 | TGCTCCCCGG | 1.12
4 | AGGCTGGGCA | 1.01
5 | CTGTGATATC | 1.19
6 | GACTAAACGA | 1.17
7 | TGATCCAGCT | 0.939
8 | GGTCGAGGAC | 1.02
9 | TGTGTTGTTC | 1.27
10 | CCAAGACTCT | 1.25
11 | ATGAGAAGCG | 0.983
12 | TTCAAGAGCC | 1.04
13 | GATCTTTTAC | 0.917
14 | ATGGCATCTG | 0.955
15 | TAGCATTGA | 1.01
16 | TTTCCCTGGA | 1.03
17 | AGTAATGTTG | 0.989
18 | CGAGGCCCGT | 0.99
19 | GAATGTCTAA | 1.01
20 | ATAGTTCAC | 0.987
21 | AGATTTGTGA | 1.03
22 | AGGAATGTAA | 1
23 | CTCTTGGGTG | 0.986
24 | ATCTCTGAAC | 1.03
25 | ATACATCGAA | 1.03
26 | AGACAATATG | 0.938

Row | Sequence | switch fluorescence ratio
27 | GAGGCTTTGT | 0.991
28 | GCAGGGGCAG | 1.06
29 | TTATTTTTCC | 0.975
30 | TCTCGCAGCT | 1.51
31 | TGGACGTGGA | 0.99
32 | GCTTAAACCT | 2.48
33 | TTGCACGAGG | 1.02
34 | AATTTGTG | 1.01
35 | GCGCGTTGGG | 1.02
36 | TACTGCTTGG | 1.04
37 | ATGAGGCATA | 0.947
38 | GGTGAGAGTA | 0.959
39 | TGGTTGGCCC | 1.01
40 | GTTTACTTAA | 0.986
41 | TTTCCTAAAT | 0.992
42 | TCATTCACGA | 1.03
43 | AACATTCGC | 1.11
44 | ATACGCGCCG | 1.09
45 | CGCGGCGCGG | 0.995
46 | GTTAACGAGT | 1
47 | GCAACGCCGG | 1.08
48 | TTGTGTTCGT | 1.01
49 | TTTGGTGCAT | 0.997
50 | TCACAGGTTA | 1.47
51 | ATGCCGATTC | 1.01
52 | CGGATTCTTG | 1

Row | Sequence | switch fluorescence ratio
53 | ATCTTTACTC | 1.04
54 | ACGAGAACGC | 1.05
55 | AAAACTTGGA | 1.05
56 | AAAGGAGGCC | 1.06
57 | ACGGAGACGC | 1.07
58 | CAAGTGGAAA | 0.989
59 | TTGCTCAGAG | 1.03
60 | ATGTAAGTGG | 0.952
61 | GGTAGCCAGG | 1.04
62 | GGTCCATTCC | 1.06
63 | TCTTAGAGGA | 1.01
64 | TTAGAAGCC | 0.95
65 | AGTGAAAAAT | 0.973
66 | TGCTTATAG | 0.994
67 | GGTGGTGG | 1.01
68 | GCTTTCTTTT | 1.01
69 | TGAGTATTAA | 1.02
70 | GGGACGAAGT | 0.95
71 | CTGGTAATCA | 0.971
72 | CGTTTAATGC | 1.19
73 | GATCAGGGC | 1.05
74 | TGAAAGTTCT | 0.999
75 | GACTTTGAAA | 1.03
76 | AGGCTAGTGT | 1.02
77 | TGGTGAGAGA | 1.02
78 | GTAAGTTTAA | 1.02

Row | Sequence | switch fluorescence ratio
79 | TTGTGTGCGG | 0.955
80 | GTTGTGTCTA | 0.981
81 | GAAGTTGAAA | 0.993
82 | ATCTTAGTGT | 0.996
83 | CAATACGTA | 1.11
84 | CTGAGGTCAC | 1
85 | GGTGTAGTTT | 0.945
86 | GTGATCGG | 0.968
87 | CGGATTGTCA | 1.01
88 | CGACGAGTGA | 1.07
89 | GCGGCGTCGT | 1.01
90 | CGTCGCGTTC | 1.06
91 | AGGCTGAAAC | 1
92 | GGGTGATTTA | 0.973
93 | TCCGTGGCCT | 1.04
94 | CATTCTGTAT | 1.02
95 | CGTCAGGACA | 1
96 | CGCCTCATA | 1.08
97 | ATTACTTTCG | 0.987
98 | ACTTAACTAG | 1.03
99 | CAAGATGAGC | 1.03
100 | GGATAGGGCA | 1.04
101 | GGACTAGG | 1.03
102 | ATACCTGAT | 1.08
103 | CACAAAGCAG | 1.07
104 | CAAATCTTCG | 1.36

Row | Sequence | switch fluorescence ratio
105 | ATCCTGAGAC | 1.07
106 | GCCTCAGCGT | 1.15
107 | CGATTCATGG | 0.978
108 | CGGCCGGTCT | 0.966
109 | CCTCTAAGAG | 1.49
110 | CCGCCACATT | 2.04
111 | GCCAGCGCT | 0.991
112 | GCTGCAAAGA | 1.02
113 | AGGGATAGGG | 1.02
114 | TCACCTGCCG | 1.07
115 | TGGTAGTCTG | 0.999
116 | ATGGTTTCCC | 1.02
117 | CTTGTGCCCT | 0.971
118 | TATTGGTGCT | 0.988
119 | CGTTGGGTAG | 1.04
120 | GACAGACTTT | 1.1
121 | TGGTCGCCGG | 0.953
122 | AGAACCTTTC | 3.18
123 | CCTATTGTCT | 1.03
124 | TTTCTTAGGA | 0.981
125 | ATAAACTGCT | 0.951
126 | GAGTCTACTG | 1.04
127 | CATTGAGAAC | 0.963
128 | CCCCTGAGAC | 1.56
129 | CGGAATATAC | 2.23
130 | CTCGACGGTG | 0.981

Row | Sequence | switch fluorescence ratio
131 | AGCGCTCGGC | 0.996
132 | CGCTTGGATC | 1.06
133 | TGCATTGCGG | 0.996
134 | GTTACCGGGA | 1.03
135 | CAGGTCATCC | 0.971
136 | CTCTGCCATG | 1.36
137 | AATTCTGTGG | 0.991
138 | GTTTGCAGAG | 1.06
139 | ACAATTCTGA | 0.979
140 | CAGAGGCGGG | 1.02
141 | TAAAGGTTTC | 0.976
142 | AAAGATTAAC | 0.995
143 | TCCGAGCTCG | 0.999
144 | CCCGGGCAGA | 0.99
145 | GCTGCTGTGT | 1.01
146 | TCGCAGCCGG | 1.01
147 | TGGTGAGTTG | 0.985
148 | TGGCTGCTTT | 0.982
149 | CGATAAAACT | 0.959
150 | GTTGCATAAT | 1.02
151 | TTGGCGCTTC | 1.15
152 | TGCTGGGAG | 1.1
153 | CATTCAATCG | 1.08
